Data taken from PubChem BioAssay AID1347043 (National Center for Advancing Translational Sciences (NCATS), 2019).
Hit rate of the full screen: of about 76,000 compounds, about 1,900 (2.5%) were called active. The inconclusive results got no clear call from the source; some entries with a clear call stand among them for comparison. The call rests on the fitted dose curve; in most records, active means well fitted inhibition curve with a large enough effect; inconclusive means small, poorly fitted or top-dose-only effect; inactive means flat fitted curve, though single readings scatter. Potencies of inconclusive entries are doubtful fits and often do not repeat.

target: Luciferin 4-monooxygenase (Photinus pyralis) (UniProt P08659); test: Firefly luciferase inhibition profiling of diverse chemical library using quantitative high-throughput screening; further: nearly all actives have a fitted effect of over 65% in size; conditions: purified P. pyralis luciferase, luminescence, biochemical; series mostly up to 115 µM
How it was run: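 FLuc 10nM, D-luciferin 10uM, ATP 10uM, Mg acetate 10mM, Tris acetate pH 7.5, Tween/BSA; cpd qHTS; enzyme added last; CCD luminescence.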
Potency means the concentration at half of the fitted maximal effect; tags describe the fitted curve by direction and shape.

UniProt P08659, sequence (P08659 whole entry, looked up): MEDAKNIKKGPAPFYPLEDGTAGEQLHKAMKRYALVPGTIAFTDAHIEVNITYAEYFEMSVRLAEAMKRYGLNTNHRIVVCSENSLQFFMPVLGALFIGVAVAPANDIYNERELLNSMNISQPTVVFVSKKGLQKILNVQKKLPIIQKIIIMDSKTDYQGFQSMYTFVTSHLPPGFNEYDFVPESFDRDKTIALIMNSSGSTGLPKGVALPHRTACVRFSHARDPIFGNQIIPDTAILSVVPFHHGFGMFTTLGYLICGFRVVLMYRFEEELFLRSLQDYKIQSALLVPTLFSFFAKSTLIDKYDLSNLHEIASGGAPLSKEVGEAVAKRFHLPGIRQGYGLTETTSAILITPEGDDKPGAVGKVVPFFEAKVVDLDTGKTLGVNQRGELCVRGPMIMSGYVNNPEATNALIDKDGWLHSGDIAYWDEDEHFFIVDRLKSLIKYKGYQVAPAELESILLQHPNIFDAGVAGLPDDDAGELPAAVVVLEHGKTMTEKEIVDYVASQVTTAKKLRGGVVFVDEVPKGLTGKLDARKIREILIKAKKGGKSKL

Compound | Potency
Cc1c(C(=O)N2CCC3(CCCN(C)C3=O)C2)n(C)c2ccc(F)cc12 (configuration not stated) | inconclusive: 44.7 µM [inhibitor, full curve]
CC(C)NC(=O)N1CCNc2cnc(Nc3cccc(F)c3)nc2C1 | inactive
COc1ccc(-c2cc3c(=O)n(CCNC(=O)c4ccc(C#N)cc4)ccn3n2)cc1 | inconclusive: 3.98 µM [inhibitor, full curve]
CC(C)Cc1cc(CNc2nccc(-c3cc(C(=O)O)ccn3)n2)no1 | inconclusive: 39.8 µM [inhibitor, partial curve]
O=C(O)c1ccnc(-c2ccnc(NCCN3CCCCC3=O)n2)c1 | active: 1.41 µM
CC1(C)[C@H](Cc2cc(CN3CCN(c4ccccc4)CC3)on2)C[C@@H]1NC(=O)Nc1ccc(F)cc1 | inactive
OC[C@@H]1CN(CC2CC2)C[C@H]1c1nc(-c2cccnc2)no1 | inconclusive: 39.8 µM [inhibitor, partial curve]
CC1(C)Cc2nc(N3CCOCC3)ncc2C(NC(=O)NC(C)(C)C)C1 (configuration not stated) | inactive
O=C(Nc1ccc(-c2cccc(F)c2)cc1)C1CCCN1Cc1ccc(CO)o1 (configuration not stated) | inconclusive: 50.1 µM [inhibitor, partial curve]
COc1ccc(NC(=O)c2cccc3c2CCN3C(=O)c2ccc(F)cc2)cc1OC | inconclusive: 44.7 µM [inhibitor, partial curve]
O[C@@H]1C[C@@H](c2nc(-c3ccc(OC(F)(F)F)cc3)no2)N(C2CCOCC2)C1 | active: 39.8 µM
Cc1ccc(NC(=O)c2ccc3c(c2)N(C)C2CCCCN2C3=O)cc1Cl (configuration not stated) | inconclusive: 31.6 µM [inhibitor, partial curve]
COc1cc(F)ccc1-c1cc(C(=O)NCc2c(C)cc(C)[nH]c2=O)c2c(c1)ncn2C | inconclusive: 63.1 µM [inhibitor, full curve]
COc1cccc(OCC2CN(Cc3cccc(C(F)(F)F)c3)C(=O)c3c(ccnc3-c3ccc(OCC(=O)O)cc3)O2)c1OC (configuration not stated) | active: 44.7 µM
O=C1CC2CCCC(C1)N2C(=O)c1cccc2[nH]ccc12 | inconclusive: 112 µM [inhibitor, partial curve]
O=C1CC(c2ccccc2)N(C(=O)CNC(=O)c2c[nH]c3ccccc23)CCCCCN1 (configuration not stated) | inconclusive: 11.2 µM [inhibitor, partial curve]
CSc1ccc(-c2nc(CN3CCN(C(C)=O)CC3)c(C)o2)cc1 | inconclusive: 50.1 µM [inhibitor, partial curve, poor fit]
CN1CC(c2ccccc2)CC2(CCN(C(=O)CCN3CCCC3=O)CC2)C1 (configuration not stated) | inconclusive: 44.7 µM [inhibitor, partial curve]
Cc1cc(CNc2ccc(-c3nc(CCCc4ccccc4)no3)cn2)no1 | inconclusive: 39.8 µM [inhibitor, full curve]
Cc1ccc(-c2noc([C@@H]3Cc4nc[nH]c4CN3Cc3ccc(N(C)C)cc3)n2)cc1 | inconclusive: 50.1 µM [inhibitor, partial curve]
Cc1ccccc1C(=O)N1CCC(CCC(=O)N2CCN(c3ccccn3)CC2)CC1 | active: 31.6 µM

Compound | Potency
O=C(O)c1cccc2c1CCN2S(=O)(=O)c1ccccc1F | inconclusive: 50.1 µM [inhibitor, partial curve]
Cc1nn(-c2ccc(C(C)(C)C)cc2)c(C)c1[C@@H]1C=C[C@@H](NC(=O)CCCC(=O)O)C1 | active: 22.4 µM
COCc1nc2nc(-c3ccccc3)c(-c3ccnc(OC)c3)cc2n1C | inconclusive: 70.8 µM [inhibitor, partial curve]
c1ccc(-c2noc(Nc3ccc4c(c3)OCCO4)n2)cc1 | active: 22.4 µM
O=C(Nc1ccc2c(c1)OCCO2)N1CCCC(Cc2noc(-c3ccncc3)n2)C1 (configuration not stated) | inconclusive: 56.2 µM [inhibitor, partial curve]
CCOCCOC1CCN(C(=O)c2cccc3[nH]ccc23)CC1 | active: 35.5 µM
Fc1ccc(CN2CC[C@H](c3nnc(Cc4ccccc4)o3)C2)cc1F | inactive
CC(C)N1C(=O)CO[C@H]2CCN(Cc3ccccc3Cl)CC[C@@H]21 | inactive
Cc1ccc(-c2cc3c(=O)n(CCNC(=O)c4cc(F)ccc4F)ccn3n2)cc1C | inconclusive: 0.794 µM [inhibitor, full curve]
COc1ccc(-c2cc(-c3ccc4cn[nH]c4c3)cn3cncc23)cn1 | inconclusive: 70.8 µM [inhibitor, partial curve, poor fit]
CNC(=O)CCn1ncc2cc(OCc3ccccc3-c3cccc(CO)c3)ccc21 | active: 15.8 µM
COc1ccccc1OCc1cc(C(=O)NCc2ccc3c(c2)OCO3)n[nH]1 | inconclusive: 50.1 µM [inhibitor, partial curve]
COc1ccc(CCC(=O)N2CCC[C@H]2c2nc(-c3ccccc3)no2)cc1 | inconclusive: 44.7 µM [inhibitor, partial curve]
COc1ccc(CN2Cc3[nH]cnc3C[C@H]2c2nc(-c3ccc(C)cc3)no2)cc1 | active: 39.8 µM
CN(C)C(=O)c1csc(N2CCN(c3cccc(Cl)c3)CC2)n1 | inconclusive: 50.1 µM [inhibitor, partial curve]
Cc1cc2cc(C(=O)N3C[C@H]4CC=CC[C@H]4C3)ccc2o1 | inconclusive: 50.1 µM [inhibitor, partial curve]
OC1CC(c2cc(NCCOc3ccccc3)ncn2)C1 (configuration not stated) | inconclusive: 44.7 µM [inhibitor, partial curve]
COC(=O)[C@@H]1Cc2c([nH]c3ccccc23)[C@H]2C[C@@H](NC[C@H]3CCCO3)C[C@@H](c3ccccc3F)N21 | inactive
Cn1c(CNC(=O)C23CCCC=C2N(C2CCCC2)C(=O)CC3)nc2ccccc21 (configuration not stated) | inconclusive: 44.7 µM [inhibitor, partial curve]
CCCN1C[C@@H](CO)[C@H](c2nc(CCOC)no2)C1 | inactive
O=C(N[C@H]1CCN2C(=O)c3cc(-c4ccccc4F)ccc3NC(=O)[C@H]12)C1CCCC1 | inconclusive: 44.7 µM [inhibitor, partial curve]
